Experimental findings from article PMC4336329 (PLoS ONE, 2015) are described below.

The whole screen tested about 310,000 compounds, of which about 14,000 (4.5%) showed an effect of 50% or more. Effects have a minus sign here. The list shows a part of the results.
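Further: peak tail current of the secondary pulse compared with the same well before compound.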

In this assay the target is human ether-à-go-go-related gene (hERG) potassium channel (human, UniProt Q12809). Briefly: primary screen, population patch clamp on CHO cells stably expressing hERG.
Chain of human ether-à-go-go-related gene (hERG) potassium channel (Q12809 whole entry, looked up): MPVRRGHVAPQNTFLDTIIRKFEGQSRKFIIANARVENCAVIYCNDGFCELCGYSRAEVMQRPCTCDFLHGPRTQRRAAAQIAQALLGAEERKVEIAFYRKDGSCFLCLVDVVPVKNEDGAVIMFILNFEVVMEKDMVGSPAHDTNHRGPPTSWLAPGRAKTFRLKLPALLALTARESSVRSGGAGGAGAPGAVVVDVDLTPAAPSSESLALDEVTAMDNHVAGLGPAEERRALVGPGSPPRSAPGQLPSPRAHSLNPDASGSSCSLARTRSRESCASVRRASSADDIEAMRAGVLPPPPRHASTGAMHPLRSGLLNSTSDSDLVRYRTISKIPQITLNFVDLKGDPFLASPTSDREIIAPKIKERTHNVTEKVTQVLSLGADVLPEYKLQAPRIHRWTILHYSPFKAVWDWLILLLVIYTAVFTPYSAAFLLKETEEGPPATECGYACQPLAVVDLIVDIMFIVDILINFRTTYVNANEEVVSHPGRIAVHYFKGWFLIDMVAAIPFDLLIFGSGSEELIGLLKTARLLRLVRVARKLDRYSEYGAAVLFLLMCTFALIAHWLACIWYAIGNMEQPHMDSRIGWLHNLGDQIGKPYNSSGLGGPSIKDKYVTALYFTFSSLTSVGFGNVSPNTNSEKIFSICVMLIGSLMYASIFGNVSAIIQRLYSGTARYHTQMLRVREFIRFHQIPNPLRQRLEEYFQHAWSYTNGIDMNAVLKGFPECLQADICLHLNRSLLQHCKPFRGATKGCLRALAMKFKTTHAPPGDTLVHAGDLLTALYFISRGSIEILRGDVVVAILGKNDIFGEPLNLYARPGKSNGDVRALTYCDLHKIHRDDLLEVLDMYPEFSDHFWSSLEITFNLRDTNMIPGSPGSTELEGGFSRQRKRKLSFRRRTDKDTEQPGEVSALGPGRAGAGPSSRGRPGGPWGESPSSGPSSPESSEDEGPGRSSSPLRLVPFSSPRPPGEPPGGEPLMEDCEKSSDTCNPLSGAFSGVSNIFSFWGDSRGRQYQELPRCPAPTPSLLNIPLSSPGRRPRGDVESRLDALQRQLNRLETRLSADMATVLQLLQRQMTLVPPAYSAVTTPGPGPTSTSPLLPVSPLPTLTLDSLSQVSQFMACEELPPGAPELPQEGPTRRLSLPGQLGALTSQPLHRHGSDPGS
Regarding `COc1cc(C(=O)OCC(=O)N2CCC(Cc3ccccc3)CC2)cc(OC)c1OC`, the “hERG current change (%, negative = inhibition) at 10uM” value was -16.9%.
As for `CCOc1ccc(C(=O)Nc2ccc3c(c2)C(=O)NC3=O)cc1`, the “hERG current change (%, negative = inhibition) at 10uM” value is listed as 13.2%.
For the compound `O=C(COc1ccccc1)NCCSCc1ccccc1Cl`, the “hERG current change (%, negative = inhibition) at 10uM” value was -13.1%.
On to `CN1CCN(C(=O)c2cnn3c(C(F)F)cc(C4CC4)nc23)CC1`, for which the “hERG current change (%, negative = inhibition) at 10uM” value was -9%.
On to `Cc1ccc(Cn2c(CN3CCOCC3)nc3c2c(=O)n(C)c(=O)n3C)cc1`, for which the “hERG current change (%, negative = inhibition) at 10uM” value is on record as -20.6%.
For the compound `C=CCC(NCCCO)c1cccc(OC)c1OC.Cl` (centres unmarked), the “hERG current change (%, negative = inhibition) at 10uM” value is 6.88%.
With `COc1cccc(CN2C(=O)CCC2(C)C(=O)NCCc2ccc(OC)c(OC)c2)c1` (centres unmarked), the “hERG current change (%, negative = inhibition) at 10uM” value is 2.19%.
Next, `COc1ccc(C(=O)NCC(=O)N/N=C/c2cccnc2)cc1OC`: 15.2%; `C=CCOc1ccccc1/C=N/NC(=O)Cc1ccccc1`: 11.8%; `CCc1sc(N)nc1-c1ccccc1`: 2.5%.
With `S=C(NCCc1ccccc1)Nc1ccc(Nc2ccccc2)cc1`, the “hERG current change (%, negative = inhibition) at 10uM” value stood at 26.5%.
In the case of `CCOC(=O)COc1ccc(N)cc1CC(NC(C)=O)(C(=O)OCC)C(=O)OCC`, the “hERG current change (%, negative = inhibition) at 10uM” value was -72.7%.
As to `Fc1cc(F)cc(NC(=S)NN2CCOCC2)c1`, the “hERG current change (%, negative = inhibition) at 10uM” value was 1.56%.
Next, `CCc1cccc(C)c1NC(=O)c1cccnc1`: 5.55%.
Next, `CCOC(=O)Cn1c(-c2ccccn2)nc2ccccc21`: -1.69%.
For `Cc1ccnc(SCC(=O)c2ccc(Br)cc2)c1C#N`, the “hERG current change (%, negative = inhibition) at 10uM” value is -3.39%.
In the case of `N#Cc1c(-c2ccccc2)nc(-c2ccccc2)[nH]c1=O`, the “hERG current change (%, negative = inhibition) at 10uM” value turned out to be 13.4%.
Next, `O=c1[nH]c(COc2ccccc2)nc2ccccc12`: 17.7%; `CCC(CC)C(=O)c1c[nH]c(C(=O)O)c1`: 19.6%.
Next, `CC(C)=CCOc1ccc2ccc(=O)oc2c1`: -12.9%; `COc1ccc(C(CNC(=O)c2oc3cc(C)c(Cl)cc3c2C)N2CCCCC2)cc1` (centres unmarked): 16.3%; `CCN(CC)CCCN(Cc1cc2cc3c(cc2[nH]c1=O)OCO3)C(=S)NCCCN(C)C`: 2.52%.
Turning to `CCCn1c(N)c(N(CCOC)C(=O)c2cc(Cl)nc3ccccc23)c(=O)[nH]c1=O`, the “hERG current change (%, negative = inhibition) at 10uM” value stood at 35.1%.
Consider `CC(NS(=O)(=O)c1ccc(Cl)cc1)C(=O)Nc1ccc2c(c1)OCCO2` (centres unmarked), for which the “hERG current change (%, negative = inhibition) at 10uM” value is -19.4%.
Consider `CN(C)S(=O)(=O)c1cc(NC(=O)C[N+]23CCN(CC2)CC3)ccc1Cl.[Cl-]`, for which the “hERG current change (%, negative = inhibition) at 10uM” value worked out at 14.1%.
`COc1ccccc1/C=C/C(=O)OCCCN(C)C.Cl`: the “hERG current change (%, negative = inhibition) at 10uM” value is given as -3.33%.
For `CSCCC(NC(=O)c1ccoc1C)C(=O)O` (centres unmarked), the “hERG current change (%, negative = inhibition) at 10uM” value was -2.73%.
For the compound `O=C(NC1CCCCC1)C(c1cccs1)N(C(=O)c1ccccn1)c1ccccc1` (centres unmarked), the “hERG current change (%, negative = inhibition) at 10uM” value is recorded as -0.682%.
With `COc1cc(C2C(C#N)=C(N)Oc3cc(N(C)C)ccc32)cc2c1OCO2` (centres unmarked), the “hERG current change (%, negative = inhibition) at 10uM” value is given as -6.32%.
As for `CSCCC(NS(=O)(=O)c1ccccc1F)C(=O)NCc1cccnc1` (centres unmarked), the figure is 13.7%.
As to `CCOc1ccc(Cl)cc1S(=O)(=O)N1CCN(c2ccc(F)cc2)CC1`, the “hERG current change (%, negative = inhibition) at 10uM” value is -32.9%.
As for `CN(Cc1cn(-c2ccccc2)nc1-c1ccc(F)cc1)C(=O)CCC(=O)O`, the figure is 28%.
Regarding `FC(F)(F)c1ccc(Oc2ccc3c(C(F)(F)F)cc(C(F)(F)F)nc3n2)cc1`, the “hERG current change (%, negative = inhibition) at 10uM” value turned out to be 11.7%.
As for `COc1ccc(CCNC(=O)C2CC=CCC2C(=O)O)cc1` (centres unmarked), the figure is 12.4%; as for `CCCCC(=O)Nc1c2c(nn1-c1ccc([N+](=O)[O-])cc1)CS(=O)(=O)C2`, -27.9%.
As for `CCCCN(C)C(=O)C1CCN(c2ccc(S(=O)(=O)N3CCOCC3)cc2[N+](=O)[O-])CC1`, the “hERG current change (%, negative = inhibition) at 10uM” value is given as -53.9%.
Take `Cc1ccc(S(=O)(=O)N2CCN(C(=O)c3sccc3C)CC2)cc1`: the “hERG current change (%, negative = inhibition) at 10uM” value was -16.5%.
As for `CCOP(=O)(OCC)c1nc(-c2ccc(Cl)cc2Cl)oc1N1CCOCC1`, the “hERG current change (%, negative = inhibition) at 10uM” value is on record as -26%.
Consider `COc1ccccc1NC(=O)Nc1ccccc1SC`, for which the “hERG current change (%, negative = inhibition) at 10uM” value is -0.488%.
`CC(Sc1nccn1C)C(=O)Nc1ccc(Cl)cn1` (centres unmarked): the “hERG current change (%, negative = inhibition) at 10uM” value was determined as 4.6%.
Turning to `COc1ccccc1Nc1nc(N)nc(CN2CC(C)CC(C)C2)n1` (centres unmarked), the “hERG current change (%, negative = inhibition) at 10uM” value is listed as -73.8%.
`CCNc1nc(SC)nc(N(C#N)CC(=O)OC)n1`: the “hERG current change (%, negative = inhibition) at 10uM” value turned out to be 4.32%.
As to `Cc1ccc2c(c1)c1nnc(SCC(=O)NC3CC3)nc1n2C`, the “hERG current change (%, negative = inhibition) at 10uM” value is on record as -3.21%.
Consider `N#Cc1nc(-c2ccco2)oc1NCCc1ccccc1`, for which the “hERG current change (%, negative = inhibition) at 10uM” value was -5.59%.
On to `CCCNC(=O)C1(CC2CC(c3ccccc3)=NO2)CCN(C(=O)Cc2ccc(F)cc2)CC1` (centres unmarked), for which the “hERG current change (%, negative = inhibition) at 10uM” value is listed as -64.6%.
In the case of `COC(=O)C(Cc1ccc(O)cc1)NC(=O)C(C)Oc1ccccc1` (centres unmarked), the “hERG current change (%, negative = inhibition) at 10uM” value turned out to be 3.89%.
As for `COc1ccc(-c2c(NC(=O)C(C)C)n(C)c3ccccc3c2=O)cc1`, the figure is 17.6%; as for `Cc1ccc(N=Nc2c(O)n(CN3CCOCC3)c3ccccc23)cc1`, 3.48%; as for `CNC(CC(C)C)C(=O)NC1C(=O)NC(CC(N)=O)C(=O)NC2C(=O)NC3C(=O)NC(C(=O)NC(C(=O)O)c4cc(O)cc(O)c4-c4cc3ccc4O)C(O)c3ccc(c(Cl)c3)Oc3cc2cc(c3OC2OC(CO)C(O)C(O)C2OC2C[C@](C)(N)C(O)C(C)O2)Oc2ccc(cc2Cl)C1O` (some centres unmarked), 9.61%.
On to `CC1CC(=O)N(CC(=O)N2CCCC2)c2ccccc2S1` (centres unmarked), for which the “hERG current change (%, negative = inhibition) at 10uM” value is -6.91%.
Consider `Cc1c(C(=O)NCc2n[nH]c(=S)n2-c2ccc(F)cc2)cccc1[N+](=O)[O-]`, for which the “hERG current change (%, negative = inhibition) at 10uM” value was found to be 8.64%.
Take `O=C1CCC(=O)N1N1C(=O)C2C3c4ccccc4C(c4ccccc43)C2C1=O` (centres unmarked): the “hERG current change (%, negative = inhibition) at 10uM” value is on record as 13.1%.
Take `O=C(COc1ccccc1C(=O)Nc1ccccc1)NCCc1ccccc1`: the “hERG current change (%, negative = inhibition) at 10uM” value was determined as 34.4%.
For the compound `Cc1cc(=O)n(CNC(=O)c2ccccc2)c(=S)[nH]1`, the “hERG current change (%, negative = inhibition) at 10uM” value is -4.16%.
Next, `O=C(NCC(c1ccco1)N1CCc2ccccc21)c1c(F)cccc1F` (centres unmarked): -7.53%; `Cc1ccc(S(=O)(=O)N(C)C)cc1NC(=O)CN1C(=O)NC2(CCCc3ccccc32)C1=O` (centres unmarked): -11.8%.
